From paper PMC4848477 come the findings set out here.

Amino acid sequences for entries named in this document (tags omitted). A change or cut given only in a name is not applied to a line headed by its entry. Residues count along the entry.
UniProt P63085: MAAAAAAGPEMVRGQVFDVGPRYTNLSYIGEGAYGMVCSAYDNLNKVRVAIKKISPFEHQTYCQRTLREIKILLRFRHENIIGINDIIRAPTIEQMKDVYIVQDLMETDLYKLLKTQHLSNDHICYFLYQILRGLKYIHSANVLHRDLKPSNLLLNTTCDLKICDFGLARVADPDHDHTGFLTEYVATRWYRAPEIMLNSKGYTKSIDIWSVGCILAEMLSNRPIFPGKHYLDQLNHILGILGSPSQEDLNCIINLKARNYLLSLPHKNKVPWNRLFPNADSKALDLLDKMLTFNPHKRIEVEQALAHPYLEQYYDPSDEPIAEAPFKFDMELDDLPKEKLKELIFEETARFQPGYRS
UniProt P63086: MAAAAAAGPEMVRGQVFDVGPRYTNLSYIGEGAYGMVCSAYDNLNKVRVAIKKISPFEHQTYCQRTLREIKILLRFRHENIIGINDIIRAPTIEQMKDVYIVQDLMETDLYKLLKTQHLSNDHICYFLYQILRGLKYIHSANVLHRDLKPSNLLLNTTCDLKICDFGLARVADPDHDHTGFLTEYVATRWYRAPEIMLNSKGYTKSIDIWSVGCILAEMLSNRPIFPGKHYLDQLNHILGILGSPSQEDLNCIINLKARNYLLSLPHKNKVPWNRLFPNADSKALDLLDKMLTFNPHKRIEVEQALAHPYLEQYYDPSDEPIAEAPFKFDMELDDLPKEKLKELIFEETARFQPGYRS
UniProt P18887: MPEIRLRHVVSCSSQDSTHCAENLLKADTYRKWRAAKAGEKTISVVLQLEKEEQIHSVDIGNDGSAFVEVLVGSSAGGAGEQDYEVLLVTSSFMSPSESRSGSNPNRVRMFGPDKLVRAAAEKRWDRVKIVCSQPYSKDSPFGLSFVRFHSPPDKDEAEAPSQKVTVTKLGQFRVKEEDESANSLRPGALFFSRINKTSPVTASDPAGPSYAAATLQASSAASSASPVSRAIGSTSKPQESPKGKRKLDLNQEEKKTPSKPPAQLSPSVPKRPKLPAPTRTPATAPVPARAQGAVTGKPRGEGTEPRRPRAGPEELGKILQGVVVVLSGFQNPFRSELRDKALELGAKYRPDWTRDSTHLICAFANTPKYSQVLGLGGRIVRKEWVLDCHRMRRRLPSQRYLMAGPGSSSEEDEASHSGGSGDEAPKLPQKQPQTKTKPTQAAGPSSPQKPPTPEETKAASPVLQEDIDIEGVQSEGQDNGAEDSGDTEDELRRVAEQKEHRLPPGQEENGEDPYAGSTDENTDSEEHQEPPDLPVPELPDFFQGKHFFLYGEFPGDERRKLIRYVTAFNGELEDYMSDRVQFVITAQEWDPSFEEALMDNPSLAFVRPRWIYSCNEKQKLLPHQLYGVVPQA
UniProt P02769, residues 25-607: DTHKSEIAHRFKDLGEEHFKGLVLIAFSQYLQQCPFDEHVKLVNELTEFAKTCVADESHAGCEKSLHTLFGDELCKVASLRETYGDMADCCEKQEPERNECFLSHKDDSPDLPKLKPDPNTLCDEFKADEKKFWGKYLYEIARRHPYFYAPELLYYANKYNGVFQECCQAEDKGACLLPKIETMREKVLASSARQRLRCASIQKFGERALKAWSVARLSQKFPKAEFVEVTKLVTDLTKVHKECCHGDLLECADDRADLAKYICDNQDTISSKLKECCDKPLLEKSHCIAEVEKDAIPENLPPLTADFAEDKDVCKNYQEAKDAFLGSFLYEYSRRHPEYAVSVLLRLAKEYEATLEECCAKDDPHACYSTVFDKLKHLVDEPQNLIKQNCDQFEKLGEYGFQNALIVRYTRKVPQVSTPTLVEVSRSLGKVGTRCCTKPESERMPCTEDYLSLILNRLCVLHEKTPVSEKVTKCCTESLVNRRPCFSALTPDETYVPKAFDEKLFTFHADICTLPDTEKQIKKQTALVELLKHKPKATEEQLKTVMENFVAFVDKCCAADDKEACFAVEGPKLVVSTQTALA
UniProt Q01147: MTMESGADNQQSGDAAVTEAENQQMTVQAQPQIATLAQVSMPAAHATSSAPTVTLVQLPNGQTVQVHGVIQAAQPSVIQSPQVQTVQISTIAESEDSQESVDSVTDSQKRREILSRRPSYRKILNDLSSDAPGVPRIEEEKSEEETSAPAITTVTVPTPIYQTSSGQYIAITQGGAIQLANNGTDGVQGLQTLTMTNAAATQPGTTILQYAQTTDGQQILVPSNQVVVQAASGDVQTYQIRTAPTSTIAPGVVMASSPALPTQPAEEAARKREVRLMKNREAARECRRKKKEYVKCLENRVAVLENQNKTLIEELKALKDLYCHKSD
UniProt P27008: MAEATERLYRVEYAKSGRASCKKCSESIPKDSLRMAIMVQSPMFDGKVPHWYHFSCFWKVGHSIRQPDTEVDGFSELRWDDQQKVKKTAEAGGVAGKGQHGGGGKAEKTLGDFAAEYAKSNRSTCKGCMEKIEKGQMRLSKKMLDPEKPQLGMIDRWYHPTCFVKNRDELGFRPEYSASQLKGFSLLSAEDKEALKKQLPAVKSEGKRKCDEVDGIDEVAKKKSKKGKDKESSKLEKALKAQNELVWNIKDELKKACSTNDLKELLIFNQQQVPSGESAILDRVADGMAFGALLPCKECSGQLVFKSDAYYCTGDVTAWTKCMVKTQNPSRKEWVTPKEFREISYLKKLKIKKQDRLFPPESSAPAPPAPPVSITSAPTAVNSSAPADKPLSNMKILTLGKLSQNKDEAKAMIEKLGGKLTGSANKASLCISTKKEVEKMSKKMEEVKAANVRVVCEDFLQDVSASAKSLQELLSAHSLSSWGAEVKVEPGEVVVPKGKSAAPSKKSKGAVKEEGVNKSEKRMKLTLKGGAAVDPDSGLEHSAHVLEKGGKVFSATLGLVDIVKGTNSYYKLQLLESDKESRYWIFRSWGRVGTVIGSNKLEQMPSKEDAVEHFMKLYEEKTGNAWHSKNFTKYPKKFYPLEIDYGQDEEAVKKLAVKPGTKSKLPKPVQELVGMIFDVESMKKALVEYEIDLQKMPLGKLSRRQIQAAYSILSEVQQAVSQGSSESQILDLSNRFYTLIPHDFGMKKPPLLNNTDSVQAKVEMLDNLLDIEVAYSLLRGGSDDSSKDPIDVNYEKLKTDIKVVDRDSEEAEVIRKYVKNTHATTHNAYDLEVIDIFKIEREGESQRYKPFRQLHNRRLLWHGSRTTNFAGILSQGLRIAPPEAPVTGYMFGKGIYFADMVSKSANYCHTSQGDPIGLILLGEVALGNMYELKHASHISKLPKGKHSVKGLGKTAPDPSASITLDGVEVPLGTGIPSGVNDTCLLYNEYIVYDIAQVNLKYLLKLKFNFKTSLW
UniProt P09874: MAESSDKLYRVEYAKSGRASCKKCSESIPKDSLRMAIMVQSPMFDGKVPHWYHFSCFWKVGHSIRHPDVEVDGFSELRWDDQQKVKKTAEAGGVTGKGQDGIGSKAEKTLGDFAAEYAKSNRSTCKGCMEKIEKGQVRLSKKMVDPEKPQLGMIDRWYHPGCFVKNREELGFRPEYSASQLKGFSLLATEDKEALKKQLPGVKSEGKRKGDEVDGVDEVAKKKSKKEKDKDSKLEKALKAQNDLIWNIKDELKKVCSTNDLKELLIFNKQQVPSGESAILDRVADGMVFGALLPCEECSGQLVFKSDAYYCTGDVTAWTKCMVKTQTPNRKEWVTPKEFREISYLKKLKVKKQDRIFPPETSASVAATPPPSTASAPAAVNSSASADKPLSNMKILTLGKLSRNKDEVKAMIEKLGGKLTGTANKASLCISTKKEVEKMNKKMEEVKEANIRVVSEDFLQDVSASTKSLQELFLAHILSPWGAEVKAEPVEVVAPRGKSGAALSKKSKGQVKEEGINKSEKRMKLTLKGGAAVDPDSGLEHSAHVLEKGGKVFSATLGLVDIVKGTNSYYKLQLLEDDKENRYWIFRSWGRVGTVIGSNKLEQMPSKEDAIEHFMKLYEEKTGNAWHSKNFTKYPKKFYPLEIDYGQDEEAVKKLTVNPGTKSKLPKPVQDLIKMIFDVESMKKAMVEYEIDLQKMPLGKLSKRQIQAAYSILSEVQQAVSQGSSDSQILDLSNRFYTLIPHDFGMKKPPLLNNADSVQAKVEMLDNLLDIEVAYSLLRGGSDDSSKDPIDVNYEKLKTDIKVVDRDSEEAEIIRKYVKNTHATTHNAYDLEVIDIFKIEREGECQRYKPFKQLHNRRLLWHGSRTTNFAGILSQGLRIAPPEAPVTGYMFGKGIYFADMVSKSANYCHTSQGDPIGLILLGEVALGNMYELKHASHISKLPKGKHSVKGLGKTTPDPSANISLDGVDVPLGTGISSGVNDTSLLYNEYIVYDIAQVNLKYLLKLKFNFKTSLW

The target in test [1] is phosphorylated Erk2, endogenous in mouse cerebral neurons and hippocampal slices (mouse (endogenous in cerebral neurons and hippocampal slices)) (UniProt P63085). Briefly: co-IP; as a3, crosslinked chromatin of stimulated cerebral neurons of PARP1-KO mice; Erk2 antibody.
Test [2] has as its target phosphorylated Erk2 (extracellular signal regulated kinase-2), endogenous in rat cerebral neurons (rat (endogenous in cultured cerebral neurons)) (UniProt P63086). Kind of test: co-IP; nuclear protein extracts of cultured rat cerebral neurons after high frequency stimulation (3 repeats of 1 sec pulse, 100 Hz, 10 sec pause); antibody against the c-terminal of Erk2; Protein A/G Agarose Beads, 1 h, 4 °C.

Test [3] addresses recombinant phosphorylated Erk2 (UniProt P63086). Kind of test: co-IP; recombinant proteins, r-PARP1 200 nM and r-p-Erk2 200 nM, in the presence of ssDNA (400 nM) and βNAD (dose series); both purified.
Test [4] has as its target XRCC1 (X-ray repair cross complementing protein-1) (UniProt P18887). Kind of test: far-Western, overlay or dot blot; dot blot: r-p-Erk2 (1 μg) and control proteins on nitrocellulose; incubated 3 h at room temperature with 5 μg/ml purified recombinant PARP1, PARP1 domains or polyADP-ribosylated PARP1 in 50 mM Tris-HCl pH7.5, 120 mM NaCl, 0.1% NP40, 0.5 mM PMSF, 20 mg/ml BSA; detected with antibodies; both purified.

Test [5] addresses recombinant phosphorylated Erk2 (UniProt P63086). Described as above.
Test [6] shares this target. Briefly: co-IP; recombinant proteins, 200 ng each, no ssDNA; antibody against the c-terminal of Erk2 or against PARP1 (Alexis, ALX210-302); Protein A/G Agarose Beads; both purified.
For test [7] the target is unchanged. Kind of test: co-IP; recombinant proteins, r-PARP1 200 ng and r-p-Erk2 200 ng, in the presence of ssDNA (1 μg); both purified.
Test [8] shares this target. Briefly: co-IP; recombinant proteins, r-PARP1 200 ng and r-p-Erk2 200 ng, with ssDNA (1 μg) and the recombinant A-B domain of PARP1 (200 ng); both purified.
The target in test [9] is BSA (bovine (from the name BSA)) (UniProt P02769). Briefly: far-Western, overlay or dot blot; dot blot: r-p-Erk2 (1 μg) and control proteins on nitrocellulose; incubated 3 h at room temperature with 5 μg/ml purified recombinant PARP1, PARP1 domains or polyADP-ribosylated PARP1 in 50 mM Tris-HCl pH7.5, 120 mM NaCl, 0.1% NP40, 0.5 mM PMSF, 20 mg/ml BSA; detected with antibodies; both purified.

No constants are given. Whether binding was seen depends on the method and setting. For some assays here: Binding seen in cells or lysates may run through a third protein. Some entries that bind do so weakly or less than the wild type.

As to “CREB, endogenous in mouse cerebral neurons (from UniProt Q01147 1-327)”, the binding entry in test [1] was “binds weakly”.
On to “PARP1 (polyADP-ribose polymerase 1), endogenous in rat cerebral neurons (from UniProt P27008 1-1014)”, for which, in test [2], the binding result is listed as “binds”.
For “polyADP-ribosylated recombinant human PARP1 (from UniProt P09874 1-1014)”, the binding entry in test [3], in [4] and in test [5] was “binds” in each case.
On to “recombinant (A-D) auto-modification domain of PARP1 (aa1-524) (from UniProt P09874 1-524) (domain or fragment)”, for which the binding result in [5] is “no binding (tested: 5 μg/ml)”.
“recombinant DNA-binding domain of PARP1 (A-B domain; aa1-201) (from UniProt P09874 1-201) (domain or fragment)”: the binding entry in test [5] is “no binding (tested: 5 μg/ml)”.
For “recombinant PARP1 (1-494aa) (from UniProt P09874 1-494) (domain or fragment)”, the binding result in test [6] was “no binding”.
As for “recombinant human PARP1 (from UniProt P09874 1-1014)”, the binding entry in test [7] was “no binding (condition: with ssDNA (1 μg))”; in test [8], “binds”; in test [6], “binds”; in test [9], “no binding (tested: 5 μg/ml)”; in [4], “binds”; in [5] it was “binds”.
